{"source": "PubChem BioAssay AID1671194", "about": "(National Center for Advancing Translational Sciences (NCATS), 2021)", "note": "Screen size: about 140,000 compounds; about 240 (0.17%) were called active. The shares of active, inactive and inconclusive entries below differ from those in the screen. Calls follow the shape of the dose curve; as a rule, active = well fitted inhibition curve with a large enough effect; inconclusive = small, poorly fitted or top-dose-only effect; inactive = no such curve, though single readings can be large or run the other way. A potency beside an inconclusive call is a rough fit, not a confirmed value. Potency is read from the fitted curve at half-maximal effect; tags tell the direction and shape of the fitted curve."}
{"assay": "Primary qHTS assay for inhibitors of alpha-synuclein gene (SNCA) expression; also: nearly all actives have a fitted effect of over 45% in size", "conditions": "HEK-293 SNCA-luciferase knock-in, luminescence, 24 h; series mostly up to 57.2 µM"}
{"smiles": "CN1[C@@H](CCC(=O)NCc2cccs2)CNC(=O)[C@@H]2[C@H]1CCN2Cc1ccc(C(F)(F)F)cc1", "Potency": "inconclusive: 3.55 µM [inhibitor, single point]"}
{"smiles": "O=C(NCc1ccccc1)O[C@@H]1CO[C@H]2[C@@H]1OC[C@@H]2Nc1nccc(-c2ccc3c(c2)OCO3)n1", "Potency": "inconclusive: 39.8 µM [inhibitor, single point]"}
{"smiles": "CN(C)c1ccc(CN[C@H]2CC(C)(C)[C@@H]3C[C@@](C)(O)CC[C@]23CCC(=O)NCCc2c[nH]c3ccccc23)cc1", "Potency": "inconclusive: 39.8 µM [inhibitor, single point]"}
{"smiles": "COc1cccc(C2C(C(=O)Nc3ccccc3)=C(C)Nc3nc(-c4ccccc4)nn32)c1OC", "note": "(stereo unspecified)", "Potency": "inconclusive: 28.2 µM [inhibitor, single point]"}
{"smiles": "COc1ccc(C)cc1NC(=O)c1ccc2c(c1)CCN2S(=O)(=O)c1ccc(Cl)cc1", "Potency": "inconclusive: 2.82 µM [inhibitor, single point]"}
{"smiles": "O=C(c1ccc(F)cc1)N1CCCN(Cc2ccc3c(c2)OCO3)c2ccccc21", "Potency": "inactive"}
{"smiles": "CC(=O)Nc1cc(-c2nc3ccccc3s2)ccc1C", "Potency": "inactive"}
{"smiles": "O=c1[nH]nc2n1CCNCC2", "Potency": "inconclusive: 22.4 µM [inhibitor, partial curve, poor fit]"}
{"smiles": "CCCC(=O)Nc1cc(C2CC2)nn1C", "Potency": "inconclusive: 10 µM [inhibitor, partial curve, poor fit]"}
{"smiles": "c1ccc(CCc2nc3nccc(-c4cccnc4)n3n2)cc1", "Potency": "inactive"}
{"smiles": "COc1ccc(C(CC(=O)N(C)Cc2ncc(C)[nH]2)c2ccccc2)cc1", "note": "(stereo unspecified)", "Potency": "inconclusive: 25.1 µM [inhibitor, single point]"}
{"smiles": "CCn1cc(CN2CCC(N3C(=O)C4(CCCCC4)C3c3ccncc3)CC2)cn1", "note": "(stereo unspecified)", "Potency": "inconclusive: 35.5 µM [inhibitor, single point]"}
{"smiles": "N#CCCn1c(=O)c(CCc2ccccc2)nc2cnc(Oc3cccc(Cl)c3)nc21", "Potency": "inconclusive: 5.62 µM [inhibitor, full curve, poor fit]"}
{"smiles": "CCCCNC(=O)CSc1nnc(C)c2c(C)n(-c3ccccc3)nc12", "Potency": "inconclusive: 22.4 µM [inhibitor, single point]"}
{"smiles": "Cc1ccc(NC(=O)C2CCN(S(=O)(=O)c3c(C)noc3/C=C/c3ccco3)CC2)cc1C", "Potency": "inconclusive: 5.01 µM [inhibitor, single point]"}
{"smiles": "c1ccc(-c2noc(-c3ccn4c(CN5CCN(c6ccccc6)CC5)nnc4c3)n2)cc1", "Potency": "inactive"}
{"smiles": "O=C(NCc1ccccc1)c1cnc2n1CCN(Cc1ccccc1)CC2", "Potency": "inconclusive: 3.55 µM [inhibitor, full curve, poor fit]"}
{"smiles": "COc1ccc(OCC(=O)Nc2cccc(-c3nc4ccccc4s3)c2C)cc1", "Potency": "inactive"}
{"smiles": "CCc1ccc(C(=O)c2cn(CC(=O)Nc3ccc(C)c(C)c3)c3ccccc3c2=O)cc1", "Potency": "inconclusive: 39.8 µM [inhibitor, single point]"}
{"smiles": "O=C(Nc1c(C(=O)Nc2ccccc2F)oc2ccccc12)c1cc2ccccc2o1", "Potency": "inconclusive: 39.8 µM [inhibitor, single point]"}
{"smiles": "COc1cc(C(CC(=O)NCCC(C)C)N2Cc3ccccc3C2=O)cc(OC)c1OC", "note": "(stereo unspecified)", "Potency": "inconclusive: 22.4 µM [inhibitor, partial curve, poor fit]"}
{"smiles": "COc1ccc(OC)c(CNC(=O)[C@H]2CCC[C@H]2NC(=O)c2ccc(OC)nc2)c1", "Potency": "inconclusive: 8.91 µM [inhibitor, single point]"}
{"smiles": "COc1ccc2cc1Nc1ccc(cc1)C[C@H](NCc1ccc3c(c1)CCO3)C(=O)N(C)[C@H](C(=O)NCCC(C)C)C2", "Potency": "inactive"}
{"smiles": "Cc1ccccc1NC(=O)C1CCN(S(=O)(=O)c2c(C)noc2/C=C/c2ccco2)CC1", "Potency": "inconclusive: 7.08 µM [inhibitor, single point]"}
{"smiles": "N#Cc1ccc(S(=O)(=O)N[C@H](Cc2ccccc2)C(=O)N2CCOCCNC(=O)CC2)cc1", "Potency": "inconclusive: 31.6 µM [inhibitor, partial curve, poor fit]"}
{"smiles": "O=C(c1ccc(Cl)cc1)N1CCN(CCc2ccncc2)CC1", "Potency": "inconclusive: 3.55 µM [inhibitor, single point]"}
{"smiles": "FC(F)(F)c1ccc(CN2CCC3(CC(c4cccnc4)=NO3)C2)cc1", "note": "(stereo unspecified)", "Potency": "inactive"}
{"smiles": "CCOc1ccccc1NC(=O)Nc1nnc(N2CCCC(C)C2)s1", "note": "(stereo unspecified)", "Potency": "inconclusive: 28.2 µM [inhibitor, partial curve, poor fit]"}
{"smiles": "CC1=C[C@@H](CNC(=O)CC2(CC(=O)O)CCCC2)[C@H](C(C)C)C[C@H]1Cc1nc2ccccc2[nH]1", "Potency": "inconclusive: 1 µM [inhibitor, full curve, poor fit]"}
{"smiles": "O=C(COc1ccccc1)NCC(c1ccc(Cl)cc1)N1CCCCC1", "note": "(stereo unspecified)", "Potency": "inconclusive: 4.47 µM [inhibitor, single point]"}
{"smiles": "COc1ccc(CN2CCCC23Cc2ccccc2CNC3=O)cn1", "note": "(stereo unspecified)", "Potency": "inactive"}
{"smiles": "COc1ccc(-c2[nH]nc3ncc(C(=O)Nc4ccn(C)n4)nc23)c(C)c1", "Potency": "inconclusive: 7.94 µM [inhibitor, partial curve, poor fit]"}
{"smiles": "CCCn1cc2c3c(cccc31)CN(C(=O)Cc1ccc(OC)cc1)CC2", "Potency": "inactive"}
{"smiles": "Cc1noc(C)c1[S+](=O)([O-])N1CCC(C(=O)N2CCC(N3CCOC3=O)CC2)CC1", "Potency": "inconclusive: 31.6 µM [inhibitor, single point]"}
{"smiles": "O=C(N1CCCC1c1nc(CCOc2ccc(F)cc2)no1)C1(c2ccccc2)CC1", "note": "(stereo unspecified)", "Potency": "inconclusive: 39.8 µM [inhibitor, single point]"}
{"smiles": "O=C1NC(=O)/C(=C/c2ccc3nccnc3c2)S1", "Potency": "inactive"}
{"smiles": "COc1ccc(F)c(F)c1C(=O)c1cnc(NC2CCN(S(C)(=O)=O)CC2)nc1N", "Potency": "active: 13.6 µM"}
{"smiles": "CCc1cccc(NS(=O)(=O)c2ccc3c(c2)CC(C)N3C(=O)C2CC2)c1", "note": "(stereo unspecified)", "Potency": "inconclusive: 39.8 µM [inhibitor, single point]"}
{"smiles": "Cc1ncoc1C(=O)N1CC[C@H]2C(=O)NCCCCCCN(Cc3ccncc3)[C@@H]2C1", "Potency": "inconclusive: 0.794 µM [inhibitor, full curve, poor fit]"}
{"smiles": "CC(C)CC(=O)N1C[C@H](C(N)=O)[C@H]2c3ccccc3N(C)C(=O)[C@]21C", "Potency": "inactive"}
{"smiles": "CCCCn1c(CN(C)Cc2[nH]c3ccccc3c2C)cnc1S(=O)(=O)CC", "Potency": "inconclusive: 3.55 µM [inhibitor, partial curve, poor fit]"}
{"smiles": "CN1CCN(C(=O)CCC[C@@H]2[C@H]3CCCN4CCC[C@@H](CN2Cc2ccccc2)[C@@H]34)CC1", "Potency": "inactive"}
{"smiles": "Cc1ccc(Cl)cc1N1CCN(C(=O)CCS(=O)(=O)c2cc(Br)cc3c2N(C(=O)C2CC2)CC3)CC1", "Potency": "inconclusive: 39.8 µM [inhibitor, single point]"}
{"smiles": "CC(C)CNC(=O)C1c2ccccc2C(=O)N(C2CCCC2)C12CCCC2", "note": "(stereo unspecified)", "Potency": "inconclusive: 3.55 µM [inhibitor, full curve, poor fit]"}
{"smiles": "COc1ccccc1CNC(=O)C1CCN(C(=O)c2ncn3c2COC(c2ccc(C)cc2)C3)CC1", "note": "(stereo unspecified)", "Potency": "inactive"}
{"smiles": "CN(Cc1cc(C[C@H]2CNCC[C@H]2CC(=O)N2CCN(c3ccccc3)CC2)no1)c1ccccc1", "Potency": "inconclusive: 39.8 µM [inhibitor, partial curve, poor fit]"}
{"smiles": "O=C(Nc1ccc2c(c1)CCCN2C(=O)c1cccs1)c1ccc(F)c(F)c1", "Potency": "inconclusive: 39.8 µM [inhibitor, single point]"}
{"smiles": "Cn1ncc2c(C(=O)NCc3cccc(Cl)c3)cc(-c3cccnc3)nc21", "Potency": "inconclusive: 39.8 µM [inhibitor, single point]"}
{"smiles": "O=C(CCC1CCCC1)N1CCCC(c2noc(COc3ccccc3)n2)C1", "note": "(stereo unspecified)", "Potency": "inconclusive: 3.16 µM [inhibitor, single point]"}
{"smiles": "COc1cc(OC)c(NC(=O)CCS(=O)(=O)c2ccc3c(c2)oc(=O)n3C)cc1Cl", "Potency": "inconclusive: 20 µM [inhibitor, partial curve, poor fit]"}
{"smiles": "Cc1ccc2c(C(=O)N3CCN(c4ccccc4)CC3)cc(NC(=O)C(C)C)cc2n1", "Potency": "inconclusive: 20 µM [inhibitor, partial curve, poor fit]"}
{"smiles": "Cc1cccc(OCCc2noc(C3CCN(C(=O)NC(C)(C)C)C3)n2)c1", "note": "(stereo unspecified)", "Potency": "inconclusive: 31.6 µM [inhibitor, partial curve, poor fit]"}
{"smiles": "CCc1ccc(CNC(=O)C2COc3ccc(OC)cc3C2)cc1", "note": "(stereo unspecified)", "Potency": "inactive"}
{"smiles": "Cc1nnc(NC(=O)C2CC(=O)N(c3n[nH]c4cc(Br)ccc34)C2)s1", "note": "(stereo unspecified)", "Potency": "inconclusive: 39.8 µM [inhibitor, single point]"}
{"smiles": "O=C(NCCc1ccc(Cl)cc1)C1CCCN1Cc1ccc(-c2cncnc2)cc1", "note": "(stereo unspecified)", "Potency": "inconclusive: 31.6 µM [inhibitor, partial curve, poor fit]"}
{"smiles": "COCCSc1nc2c([nH]c3ccccc32)c(=O)n1-c1ccc(OC)c(OC)c1", "Potency": "inconclusive: 39.8 µM [inhibitor, single point]"}
{"smiles": "CC(=O)N1CCc2cc(Br)cc(S(=O)(=O)N3CCC(C(=O)Nc4cccc(C)c4C)CC3)c21", "Potency": "inconclusive: 35.5 µM [inhibitor, single point]"}
{"smiles": "COC(=O)c1nnn(CC(=O)NC(=O)Nc2ccc(F)cc2)c1C(=O)OC", "Potency": "inconclusive: 11.2 µM [inhibitor, partial curve, poor fit]"}
{"smiles": "O=C1NC(C(=O)NCc2ccco2)Cn2cccc21", "note": "(stereo unspecified)", "Potency": "inconclusive: 3.16 µM [inhibitor, single point]"}
{"smiles": "Cc1ccc(-c2cc(C(=O)NCCc3ccc(F)cc3)nn3cnnc23)cc1", "Potency": "inactive"}
{"smiles": "Cc1ccc(C(=O)N2CCC3(CC2)COc2ccccc2CN3)cc1", "Potency": "inconclusive: 8.91 µM [inhibitor, single point]"}
